# Reference: PubChem BioAssay AID1508642 (National Center for Advancing Translational Sciences (NCATS), 2021)
# In all, about 43,000 compounds went through this assay and about 200 (0.47%) were called active. Another 12% or so got no clear call; they are omitted. Calls come from the whole dose curve; as a rule, active = well fitted cell-killing curve with a large enough effect; inconclusive = small, poorly fitted or top-dose-only effect, or effect the other way; inactive = flat fitted curve, though single readings scatter. The list shows a part of the results.
# Experiment: Cell viability qHTS assay in S16 Pmp22-F2sN cells; note: nearly all actives have a fitted effect of over 65% in size
# Details: S16 Pmp22-F2sN Schwann cells (luciferase reporters placed in the Pmp22 gene) viability, CellTiter-Glo, 24 h; series mostly up to 57.5 µM; activity change, negative = cytotoxicity: at the top concentration
# Method in brief: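 Seed 500-1,000 S16 Pmp22-F2sN cells per well in phenol-red-free DMEM with 10% heat-inactivated FBS; pin-add 23 nL compound; incubate 24 h at 37C; add CellTiter-Glo, wait 15 min protected from light; read luminescence.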
# % is set by controls: 0 for no effect and ±100 for the full control effect.
row,SMILES,"activity change, negative = cytotoxicity"
1,O=C(NCc1nc2cccnc2n1Cc1ccc(F)cc1)c1ccccc1C(F)(F)F,inactive: -12.9%
2,COc1ccc2nc(NC(=O)c3cc(=O)c4ccccc4o3)sc2c1,inactive: 9.05%
3,COc1ccc(NC(=O)Cn2c(=O)n(CCc3ccccc3)c(=O)c3ccccc32)cc1,inactive: 20.9%
4,Cc1noc(-c2ccc(NCc3ccccc3)c([N+](=O)[O-])c2)n1,inactive: 0.98%
5,COc1cccc(CNS(=O)(=O)c2cc3c(cc2C)n(C)c(=O)c(=O)n3C)c1,inactive: -2.7%
6,Cc1ccccc1CN1C(=O)c2ccccc2Sc2ccc(C(=O)NCc3cccs3)cc21,inactive: -20.8%
7,Cc1noc(/C=C/c2ccccc2F)c1S(=O)(=O)N1CCC(C(=O)N(C)Cc2ccco2)CC1,inactive: -2.52%
8,CCC(=O)N1CCc2cc(Br)cc(S(=O)(=O)N3CCCC(C(=O)NCc4ccccc4)C3)c21 (stereo unspecified),inactive: 8.41%
9,COC(=O)c1c(N)n(-c2cc(Cl)cc(Cl)c2)c2nc3ccccc3nc12,inactive: 20%
10,Nc1c(-c2nc(-c3ccncc3)no2)nnn1CC(=O)Nc1ccccc1,inactive: -2.78%
11,COc1ccccc1CNCCSc1nnnn1C,inactive: 15.6%
12,COc1ccc(C(=O)N(Cc2ccco2)Cc2ccco2)cc1,inactive: 9.68%
13,COC(=O)c1cc2oc3ccccc3c2n1Cc1ccc(C)cc1,inactive: 12.5%
14,Cc1c(Cl)cccc1Nc1nn2c(=O)c3ccccc3nc2s1,inactive: 5.48%
15,CCOC(=O)c1cc2c(=O)n3ccccc3nc2n(Cc2ccco2)c1=NC(=O)c1ccccc1Br,inactive: -12.5%
16,COC(=O)c1cc(NC(=O)c2cc3c(-c4ccccc4F)nn(C)c3s2)cc(C(=O)OC)c1,inactive: 23.7%
17,COc1ccc(OC)c(S(=O)(=O)NCC(c2ccc(N(C)C)cc2)N2CCOCC2)c1 (stereo unspecified),inactive: 8.29%
18,O=C(NCC(c1ccco1)S(=O)(=O)c1cccs1)c1ccccc1 (stereo unspecified),inactive: -11.9%
19,COc1ccc(N2CCN(S(=O)(=O)c3ccc(CC(C)C)cc3)CC2)cc1,inactive: 20.4%
20,Cc1oc(-c2ccccc2F)nc1CS(=O)(=O)CC(=O)N1CCN(c2ccccc2)CC1,inactive: 11.5%
21,COc1ccc(-c2[nH]c(-c3ccc(O)cc3)nc2-c2ccccc2)cc1,inactive: 13.3%
22,Cc1ccc(Cn2c(SCC(=O)NCc3ccccc3)nc3ccsc3c2=O)cc1,inactive: 2.79%
23,Cc1ccccc1-c1noc(-c2ccc(NCC3CCCO3)c([N+](=O)[O-])c2)n1 (stereo unspecified),inactive: 8.5%
24,O=c1cc(COc2ccc(Cl)cc2Cl)nc2scc(-c3ccccc3)n12,inactive: 0.682%

row,SMILES,"activity change, negative = cytotoxicity"
1,COc1ccccc1OCC(=O)N(Cc1ccco1)Cc1ccccc1F,inactive: -5.03%
2,CCOc1ccc(CC(=O)NC2CC(=O)N(c3cccc(F)c3)C2)cc1 (stereo unspecified),inactive: 9.28%
3,CC(CNC(=O)c1ccc2c(c1)nc1n2CCCCC1)c1ccccc1 (stereo unspecified),inactive: 14%
4,COc1ccc(N(Cc2cccs2)C(=O)c2ccco2)cc1,inactive: -1.67%
5,CCCCC(=O)Nc1nnc(S(=O)(=O)N(C)Cc2ccc(Cl)cc2)s1,inactive: 4.77%
6,COCCCNc1nc2c(c(=O)n(Cc3ccc(F)cc3)c(=O)n2C)n1C,inactive: 1.92%
7,Cc1cc(C)cc(NC(=O)CCc2c(C)nc3nc(CNC(=O)c4cccc(F)c4)nn3c2C)c1,inactive: 9.35%
8,CCS(=O)(=O)N1CCc2cc(C(=O)Nc3ccc(Br)cc3F)ccc21,inactive: -10.3%
9,Cc1ccc(-n2c(=O)c3c(c4cc(C)ccc4n3C)n(CC(=O)Nc3ccc(F)cc3)c2=O)cc1,inactive: 21.7%
10,CC(=O)c1ccc(N2CCN(C(=O)c3cn(C)c(=O)c4c3c3ccccc3n4C)CC2)cc1,inactive: 13.1%
11,COc1ccc(CNC(=O)COCc2cc(-c3ccc4c(c3)OCO4)on2)cc1,inactive: 8.18%
12,CCc1cccc(C)c1NC(=O)c1ccc2c(c1)CCN2S(=O)(=O)c1ccc(Cl)cc1,inactive: -0.531%
13,Cc1ccc(S(=O)(=O)N2CC=C(c3c(C)n(CC(=O)N4CCCC4)c4ccccc34)CC2)cc1C,inactive: -11.8%
14,COc1cc(OC)cc(C(=O)NCCc2csc3nc(-c4ccccc4F)nn23)c1,inactive: 10.6%
15,Cc1sc(-n2cccc2)c(C(C)NC(=O)Nc2cccc(C(F)(F)F)c2)c1C (stereo unspecified),inactive: -5.54%
16,CCc1ccc(NC(=O)c2nc3nc(C)cc(C(F)F)n3n2)cc1,inactive: 6.86%
17,Cc1nc(N2CCOCC2)c2c(C(=O)NCc3ccc(Cl)cc3)c(C)oc2n1,inactive: -6.41%
18,Cc1ccc(OCCSc2nc3ccc(NC(=O)c4cccs4)cc3s2)cc1,inactive: -1.18%
19,CN(C)S(=O)(=O)N(CC(=O)Nc1ccc(C(F)(F)F)cc1)c1ccccc1,inactive: 10.5%
20,COc1ccc(CNC(=O)c2ccc3c(c2)N(Cc2cc(C)ccc2C)C(=O)CS3)cc1,inactive: 14.3%
21,COc1ccccc1CNS(=O)(=O)c1cc(Br)cc2c1N(C(=O)C1CC1)CC2,inactive: 10.2%
22,COc1ccc(CNc2nc(-c3ccc(Cl)cc3)nn2S(=O)(=O)c2ccc(C)cc2)cc1,inactive: 15.9%
23,COc1cccc(CNC(=O)c2cc(-c3ccc(Cl)cc3)n[nH]2)c1,inactive: 5.84%
24,O=C(CCC(=O)N1CCSc2ccccc21)Nc1ccc(Cl)cc1,inactive: -3.15%

row,SMILES,"activity change, negative = cytotoxicity"
1,CCC(CC)c1nn2c(=O)cc(COc3ccc(NC(=O)c4cccc(C)c4)cc3)nc2s1,inactive: 20.5%
2,CCOc1cccc(C(=O)N(Cc2ccc(C)o2)C2CCS(=O)(=O)C2)c1 (stereo unspecified),inactive: 0.618%
3,COc1ccccc1C(=O)Nc1nc2nc(C)cc(=O)n2[nH]1,inactive: 2.1%
4,Cc1cc(C)c2sc(NC(=O)c3ccc(S(=O)(=O)N4CCCC4)cc3)nc2c1,inactive: -1.21%
5,CCOc1ccc(NC(=O)C2(c3cccs3)CCOCC2)cc1,inactive: 18.8%
6,CCOC(=O)c1cccc(NC(=O)CCc2nc3cccnc3n2-c2ccccc2)c1,inactive: 6.57%
7,CCOC(=O)c1c(C)[nH]c(CCC(=O)Nc2cc(Cl)ccc2OC)c1C,inactive: -6.1%
8,COc1ccc(OC)c(S(=O)(=O)Nc2ccc3c(c2)n(C)c(=O)n3C)c1,inactive: -1.26%
9,CCOC(=O)c1c(C)oc2ccc(N(C(=O)c3ccncc3)S(=O)(=O)c3ccc(CC)cc3)cc12,inactive: -16.5%
10,O=C(CN1C(=O)COc2ccc(S(=O)(=O)NC3CCCC3)cc21)Nc1ccc(Cl)cc1F,inactive: -19.6%
11,O=C(NCCS(=O)(=O)N1CCN(c2ccccc2)CC1)C1CC(=O)N(c2ccc(F)cc2)C1 (stereo unspecified),inactive: -2.14%
12,COc1ccc(NC(=O)CCSc2nc(-c3ccc(OC)cc3)cc(C(F)(F)F)n2)cc1,inactive: 14.7%
13,O=C(COc1ccc(F)cc1)OCc1cc(=O)n2nc(C3CCCCC3)sc2n1,inactive: -22.7%
14,CC1=C(C(=O)N2CCN(c3cc(C)ccc3C)CC2)C2(CCC(C)CC2)OC1=O (stereo unspecified),inactive: 5.3%
15,COc1ccc(C(C(=O)NCc2ccccc2)N(C(=O)Cn2nnc3ccccc32)c2cccc(OC)c2)cc1 (stereo unspecified),inactive: 1.99%
16,CCc1nnc(SCc2c(F)cccc2Cl)c2cc3sccc3n12,inactive: 17.7%
17,Cc1ccc(NC(=O)Cn2cc(C(=O)C3CC3)c3ccccc32)c(C)c1,inactive: -2.44%
18,CC(C)CCNC(=O)c1ccc2c(c1)NC(=O)C(CS(=O)(=O)Cc1ccc(F)cc1)N2 (stereo unspecified),inactive: 4.44%
19,COc1cc(NC(=O)C2CCN(c3cnc4ccccc4n3)CC2)cc(OC)c1OC,inactive: 2.67%
20,CCCc1cc(=O)n2[nH]c(NC(=O)c3ccc(C(C)(C)C)cc3)nc2n1,inactive: -3.17%
21,CC(=O)c1cccc(NC(=O)CN2C=NS(=O)(=O)c3ccc(C)cc32)c1,inactive: 10.9%
22,COc1ccc(C(=O)Nc2nc3nc(C)c(Cc4ccccc4)c(=O)n3[nH]2)cc1OC,inactive: 3.8%
23,Cc1ccc(CNC(=O)COCc2cc(-c3cccs3)on2)cc1,inactive: 0.36%
24,CC1=C(C(=O)Nc2cccnc2)C(c2cccc(Br)c2)n2nc(SCc3ccccc3)nc2N1 (stereo unspecified),inactive: 13.7%

row,SMILES,"activity change, negative = cytotoxicity"
1,CCOc1ccc(CNC(=O)C2CCN(S(=O)(=O)N3CCC(C)CC3)CC2)cc1OC,inactive: 6.07%
2,Cc1cccc(-c2noc(-c3ccccc3NC(=O)C3CC(=O)N(c4ccccc4C)C3)n2)c1 (stereo unspecified),inactive: 13.8%
3,CCn1c(=O)c2cc(C(=O)Nc3cc(OC)c(OC)c(OC)c3)sc2c2ccccc21,inactive: -9.36%
4,Cn1ccc2cc(S(=O)(=O)N3CCCC(C(=O)NCc4ccccc4)C3)ccc21 (stereo unspecified),inactive: -2.67%
5,CC1=C(C(=O)Nc2ccccc2C)C(c2ccncc2)n2nc(SCc3ccccc3Cl)nc2N1 (stereo unspecified),inactive: 8.91%
6,COc1cccc2cc(-c3nc(Nc4cccc(C)c4)sc3C)c(=O)oc12,inactive: 8.13%
7,O=C(c1cccs1)c1cn(CCOc2ccccc2F)c2ccccc12,inactive: -24.2%
8,CCCCNC(=O)CSc1nc2ccccc2nc1Cc1ccc(C)cc1,inactive: -3.01%
9,COc1cccc(CN2C(=O)c3ccccc3Sc3ccc(C(=O)N(C)Cc4ccccc4)cc32)c1,inactive: 4.9%
10,CCOC(=O)c1ccccc1NC(=O)c1c2c(nc3ccccc13)C(=O)N(C1CCCCC1)C2,inactive: 21.4%
11,CC(C)c1ccc(S(=O)(=O)c2nnn3c2nc(N2CCN(C)CC2)c2sccc23)cc1,inactive: -10.5%
12,COc1cccc(CNC(=O)c2ccc3nc(-c4ccc(F)cc4)c(-c4ccc(F)cc4)nc3c2)c1,inactive: -29.1%
13,COc1cc(C2c3c(-c4ccccc4O)n[nH]c3C(=O)N2CCO)ccc1OCc1ccccc1 (stereo unspecified),inactive: 6.49%
14,CCOC(=O)C1CCCN(CC(=O)N2CCCc3c2c(=O)oc2ccc(OCc4ccccc4)cc32)C1 (stereo unspecified),inactive: 16.8%
15,COc1cc(OC)cc(C(=O)Nc2cc(-c3nc4cc(Cl)ccc4o3)ccc2Cl)c1,inactive: -4.58%
16,O=C(CN1C(=O)COc2ccc(S(=O)(=O)N3CCCC3)cc21)N1CCN(c2ccccc2)CC1,inactive: 2.22%
17,COc1ccc2c(Sc3ccccc3)c(C(=O)NCCc3ccc(Cl)cc3)[nH]c2c1,inactive: 6.72%
18,O=C(CSc1ncc2c(n1)-c1ccc(Cl)cc1N(Cc1ccccc1)S2(=O)=O)Nc1ccc(F)c(F)c1,inactive: -3.11%
19,CCOc1ccc(C2C(C(N)=O)=C(C)Nc3nc(SCc4ccccc4)nn32)cc1 (stereo unspecified),inactive: 12.9%
20,O=C(NCc1ccc2c(c1)CCN2C(=O)c1ccccc1)c1cc2ccccc2[nH]1,inactive: -11.1%
21,CCN1C(=O)c2ccccc2Sc2ccc(NC(=O)c3ccc(Cl)cc3)cc21,inactive: -9.54%
22,Cc1oc2ncn(C)c(=O)c2c1C(=O)N1CCN(c2ccccc2F)CC1,inactive: 3.84%
23,Cc1cccc(NS(=O)(=O)c2ccc3c(c2)C(C)(C)C(=O)N3C)c1,inactive: -7.78%
24,CCc1nn(Cc2ccc(Cl)cc2)c(=O)c2cc3cc(C)ccc3n12,inactive: 11.1%
